The list shows a part of the results. At the low end of the ranking, values are background and their order means little.

The target of the assay is SIX1 homeodomain (reference allele) (UniProt Q15475). As to the kind of experiment: universal protein binding microarray. To be noted: Universal all-10-mer PBM (8x60K, AMADID 030236), 300 nM GST-tagged protein, Alexa Fluor 488 anti-GST; buffer, salt, pH and temperature not stated; high values mean tight binding; most listed sequences are background and not binding sites; double strand, one strand shown.
Consider GGGGAAAA, for which the binding signal was -0.179 E-score.
In the case of AGAAGCAC it was -0.219 E-score.
Regarding ACAAATTG, the binding signal is -0.183 E-score.
For AACGGAGC, the binding signal is -0.255 E-score.
With CAGTGCGC, the binding signal was -0.211 E-score.
In the case of CGTATTTA, the binding signal amounted to 0.169 E-score.
On to ATTAACAA, for which the binding signal is -0.101 E-score.
With AATGCATC, the binding signal worked out at 0.036 E-score.
In the case of AAAGAAGG it was -0.0956 E-score.
GAGCTTAC: the binding signal is -0.0554 E-score.
With ACCCCTAG, the binding signal came out at 0.146 E-score.
The same measure for CGCGGCTA: -0.0643 E-score; for CCAGTATC: 0.407 E-score; for AAGTGCGT: -0.2 E-score.
The same measure for ATTATTAG: 0.0526 E-score; for TAATTATA: 0.0877 E-score.
In the case of CAGAACCA it was -0.147 E-score.
With CGATTGCG, the binding signal was -0.135 E-score.
With CACGATCA, the binding signal came out at 0.172 E-score.
Take GGCATAAC: the binding signal was -0.174 E-score.
Take CCAACTTA: the binding signal was -0.0644 E-score.
Take CTTCATTC: the binding signal was -0.144 E-score.
In the case of AGGGATGG, the binding signal was found to be 0.0666 E-score.
As to CAGCAAGC, the binding signal is -0.168 E-score.
For the sequence GGTGGCGA, the binding signal is -0.113 E-score.
Turning to GGCACTTA, the binding signal is -0.195 E-score.
On to GCCTGAAC, for which the binding signal is -0.27 E-score.
On to CCCATCGA, for which the binding signal came out at 0.127 E-score.
Regarding GATTGCGC, the binding signal was -0.123 E-score.
With CAGAAGAA, the binding signal is -0.205 E-score.
On to CATCTCAG, for which the binding signal was 0.227 E-score.
As for CGCATTAC, the binding signal amounted to 0.0348 E-score.
In the case of AGCAAACG it was -0.202 E-score; in that of CCGTTAGC, -0.186 E-score; in that of GACAATCC, 0.18 E-score.
Take GATGTAAA: the binding signal was -0.0741 E-score.
In the case of GATGGCAC, the binding signal turned out to be 0.0184 E-score.
With GAATGCTA, the binding signal was -0.0195 E-score.
For CCTAAAAA, the binding signal is -0.154 E-score.
For AGCCTTAA, the binding signal was -0.251 E-score.
As to ACTTAAGC, the binding signal is -0.191 E-score.
The same measure for ACTCAGCA: -0.163 E-score; for GTTAGTCA: -0.0628 E-score; for ACATCCCG: 0.143 E-score.
In the case of ACATACCA, the binding signal worked out at 0.00472 E-score.
GAGGAAAA: the binding signal was -0.0356 E-score.
With AATCAGAC, the binding signal is -0.00129 E-score.
The same measure for CCTATGCG: -0.0587 E-score; for CACAGGAC: -0.208 E-score.
With CTCCCGGC, the binding signal was determined as 0.0257 E-score.
With ATAGATGG, the binding signal was 0.0887 E-score.
Regarding AGAGCCAA, the binding signal was -0.308 E-score.
For the sequence AGGGCCAG, the binding signal is -0.183 E-score.
Take ACACTGCC: the binding signal came to 0.0567 E-score.
For ATAACATC, the binding signal was determined as 0.165 E-score.
Regarding CCCGCGGA, the binding signal was 0.205 E-score.
As to ACACTAGA, the binding signal was 0.0257 E-score.
In the case of CAAGAGTG it was -0.0889 E-score; in that of GCAGTCGC, -0.218 E-score; in that of GCCCGTAC, -0.144 E-score.
With AGACAACG, the binding signal is -0.103 E-score.
For the sequence ACAGGGGA, the binding signal was -0.0346 E-score.
As for AGGCCTAT, the binding signal was -0.111 E-score.
CAATTGAC: the binding signal was -0.17 E-score.
Turning to ATATCGTG, the binding signal was 0.376 E-score.
The same measure for CATGGGAA: 0.0631 E-score; for ACCCCCAC: -0.00921 E-score.
As to ACGCCTCG, the binding signal is -0.153 E-score.
With ACTGGAGC, the binding signal is -0.0378 E-score.
Take CGAGTACC: the binding signal turned out to be 0.185 E-score.
For the sequence CCGTCGCA, the binding signal is -0.162 E-score.
As to ATCCCTAG, the binding signal was 0.284 E-score.
In the case of TGGCAGAA it was -0.112 E-score; in that of ATGGCGGC, 0.0545 E-score.
As to CGGGGCCC, the binding signal came out at 0.0382 E-score.
The same measure for AAATAGTG: -0.17 E-score; for GAGTAGGC: -0.0274 E-score; for ACTGATGG: -0.158 E-score.
The same measure for ATTTGGGC: -0.313 E-score.
Take CCAGTCTC: the binding signal was -0.11 E-score.
In the case of GGGTCTCA it was 0.266 E-score; in that of ACGTTGGC, -0.223 E-score.
Take CACGAAAC: the binding signal is -0.011 E-score.
For CAATACCG, the binding signal amounted to 0.354 E-score.
Consider CAGGATGG, for which the binding signal is -0.00159 E-score.
AATCAAGA: the binding signal is -0.108 E-score.
The same measure for CGTACTCC: 0.00017 E-score; for GGTGGTCA: 0.0295 E-score; for CAAACAGC: -0.231 E-score.
In the case of GCGGGGTA it was 0.329 E-score.
For the sequence CGTAGCCC, the binding signal is -0.0502 E-score.
In the case of CGGCGTAA, the binding signal was -0.154 E-score.
TGCCCCCA: the binding signal is -0.312 E-score.
Regarding CCCTCGTC, the binding signal is -0.237 E-score.
As for ATCATAGC, the binding signal came to 0.249 E-score.
In the case of ATCCGTAA, the binding signal was found to be 0.22 E-score.
With CAAAAACA, the binding signal was -0.134 E-score.
Regarding CGTGACAA, the binding signal was found to be 0.111 E-score.
The same measure for CAGTTACC: -0.151 E-score; for TAACGGAA: -0.233 E-score; for ATAACGGA: 0.11 E-score.
As to CAGGGTGA, the binding signal stood at 0.0609 E-score.
With GCGCTCCA, the binding signal is -0.131 E-score.
On to AGGCATCC, for which the binding signal was -0.0679 E-score.
The same measure for GGGGACTA: 0.0793 E-score.
For ACTGAAGA, the binding signal is -0.111 E-score.
In the case of CTGAAAAG it was -0.125 E-score.
For AGGGAGCG, the binding signal was -0.119 E-score.
As to AACAGCCC, the binding signal was -0.283 E-score.
As to AGTCCTTC, the binding signal is -0.201 E-score.
CTAGTTTC: the binding signal came to 0.141 E-score.
The same measure for CTCTGCCC: -0.145 E-score.
The same measure for AACACCCT: 0.21 E-score; for CCCTTGCC: -0.0944 E-score.
As to ACCCTGTA, the binding signal came out at 0.169 E-score.
The same measure for AACCCGAC: 0.0556 E-score.
Take AGTGTCGA: the binding signal worked out at 0.0558 E-score.
For the sequence ACTATAGC, the binding signal is -0.0814 E-score.
On to ACAAAATG, for which the binding signal is -0.232 E-score.
Turning to ATCAGTGG, the binding signal stood at 0.261 E-score.
ACGGGCCG: the binding signal is -0.0799 E-score.
For the sequence ATGTGGAC, the binding signal is -0.0701 E-score.
In the case of CATACACA, the binding signal turned out to be 0.145 E-score.
Regarding AAAGATGG, the binding signal was -0.111 E-score.
Take AAGGGAAT: the binding signal is -0.142 E-score.
As to ACCTGATA, the binding signal amounted to 0.401 E-score.
For TAACTAAA, the binding signal is -0.0307 E-score.
Consider GACCTCAA, for which the binding signal was -0.185 E-score.
Take GTCTGCAA: the binding signal was -0.28 E-score.
As to CGCGCTAA, the binding signal was -0.0443 E-score.
In the case of ATAAGATG it was 0.108 E-score; in that of AAGGAACA, -0.21 E-score; in that of ACACTATG, 0.0853 E-score.
Regarding ACCCATAC, the binding signal was determined as 0.112 E-score.
Regarding CATCTCCC, the binding signal was -0.0178 E-score.
With CTCTGCTA, the binding signal is -0.0534 E-score.
The same measure for ATGCCGCG: -0.0391 E-score; for CAATTTGG: -0.206 E-score.
The same measure for CAAATTCG: 0.0418 E-score; for ACTAAAAA: -0.0718 E-score; for CCACGTCC: -0.218 E-score.
The same measure for CTTCTAGA: 0.036 E-score.
Take CACCGTGG: the binding signal amounted to 0.118 E-score.
On to AGATCCCG, for which the binding signal worked out at 0.302 E-score.
For the sequence CATCACGC, the binding signal is -0.158 E-score.
AATATGGG: the binding signal worked out at 0.218 E-score.
In the case of CCCGGGAG it was -0.0537 E-score; in that of AAAGTCAT, -0.239 E-score.
Turning to CATTCTTC, the binding signal is -0.0379 E-score.
Turning to AAACCTCA, the binding signal was -0.017 E-score.
On to AAAAAATA, for which the binding signal worked out at 0.0531 E-score.
Turning to CATGCCCC, the binding signal came to 0.0549 E-score.
For ACACCTCA, the binding signal is 0.24 E-score.
The same measure for GTGCAGCA: -0.211 E-score.
The same measure for ACTCGGAA: -0.0624 E-score; for CTGAAATC: -0.0654 E-score.
The same measure for ATGATAGG: 0.387 E-score.
Turning to GGATAGCA, the binding signal was 0.241 E-score.
As for AAAAGAGC, the binding signal is -0.199 E-score.
Regarding CAGCAACG, the binding signal was -0.186 E-score.
For the sequence AGCTAGCG, the binding signal was -0.246 E-score.
The same measure for CGAACCAC: -0.17 E-score; for ATGCGCTA: -0.0891 E-score.
With ACACCATC, the binding signal came out at 0.312 E-score.
Turning to ATCGATAA, the binding signal came out at 0.0591 E-score.
Regarding AACTACTG, the binding signal was -0.239 E-score.
On to AAGTCGTC, for which the binding signal is -0.0812 E-score.
On to AGCTAGAC, for which the binding signal is -0.2 E-score.
For the sequence TAGTTGAA, the binding signal came out at 0.0609 E-score.
Turning to AACAACTA, the binding signal is -0.175 E-score.
Take GCGTCGAA: the binding signal was -0.0235 E-score.
Consider GGTTGTAA, for which the binding signal is -4.5e-05 E-score.
